Assay results taken from PubChem BioAssay AID1508642 (National Center for Advancing Translational Sciences (NCATS), 2021).
Out of some 43,000 compounds screened, about 200 (0.47%) were called active. Inconclusive results (about 12%) are left out. The call rests on the fitted dose curve; in most records, active means well fitted cell-killing curve with a large enough effect; inconclusive means small, poorly fitted or top-dose-only effect, or effect the other way; inactive means flat fitted curve, though single readings scatter. This is one part of the list.

Assay: Cell viability qHTS assay in S16 Pmp22-F2sN cells; further: nearly all actives have a fitted effect of over 65% in size
Details: S16 Pmp22-F2sN Schwann cells viability, CellTiter-Glo, 24 h; series mostly up to 57.5 µM; activity change, negative = cytotoxicity: at the top concentration
How it was run: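 Viability was measured by CellTiter-Glo luminescence (15 min, room temperature). This followed 24 h at 37 °C of compound exposure (23 nL pin transfer) in S16 Pmp22-F2sN Schwann cells, 500-1,000 per well.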
On the % scale 0 is the no-effect control and ±100 the full control effect.

SMILES	activity change, negative = cytotoxicity
COc1ccc(Br)cc1CNC(=O)CN1CCSc2ccccc21	inactive: -10.2%
O=C(Nc1ccc(Cl)c(Cl)c1)N1CCC(c2ccccc2)C1 (configuration not stated)	inactive: -24.2%
COc1ccc(NC(=O)Cn2c(=O)n(Cc3nc(-c4ccccc4)no3)c(=O)c3cc4c(cc32)OCO4)cc1Cl	inactive: 0.893%
Cc1cccn2c(=O)cc(COc3cccc(NC(=O)c4ccccc4F)c3)nc12	inactive: 0.383%
COC(=O)c1ccccc1NC(=O)Cc1noc2ccc(C)cc12	inactive: 1.2%
COc1ccc(OC)c(-c2noc(CSc3nnc(Cc4ccccc4)n3-c3cccc(C)c3)n2)c1	inactive: -2.11%
Cc1noc2nc(C(=O)O)nc(N3CCCCC3)c12	inactive: 10.6%
Cn1cc(S(=O)(=O)c2ccccc2)c(=O)c2cc(F)c(N3CCCCC3)cc21	inactive: 6.19%
COc1cccc(N2CC(NC(=O)COc3ccc4ccccc4c3)CC2=O)c1 (configuration not stated)	inactive: 7.35%
CCc1nnc(SCC(=O)Nc2cc(Cl)c(OC)cc2OC)c2cc3oc(C)cc3n12	inactive: 12.7%
CC1CCC(NC(=O)Cn2ncc3c4ccccc4n(Cc4ccc(Cl)cc4)c3c2=O)CC1 (configuration not stated)	inactive: -1.07%
CC(=O)c1ccc(NC(=O)CCn2nc(C)c(S(=O)(=O)N3CCC(C)CC3)c2C)cc1	inactive: 6%
COc1ccc(C)c2sc(N(Cc3cccnc3)C(=O)CCc3ccccc3)nc12	inactive: -5.12%
COC(=O)c1c(C)sc(-c2c(-c3cccc(OC)c3)[nH]c3c2c(=O)[nH]c(=O)n3C)c1O	inactive: 0.42%
CC(=O)Nc1ccc(S(=O)(=O)NC2(C(F)(F)F)NC(=O)N(c3ccc(Cl)cc3)C2=O)cc1 (configuration not stated)	inactive: 1.98%
COc1ccc(C(=O)N2CCc3cc(OC)c(OC)cc3C2COc2ccccc2OC)cc1 (configuration not stated)	inactive: -0.0742%
Cc1ccc(C(=O)COC(=O)c2cc(-c3ccc(Cl)cc3)nc3ccccc23)cc1	inactive: 4.52%
COc1cccc(NC(=O)CSC2=Nc3ccccc3C3=NC(CCC(=O)NCc4ccco4)C(=O)N23)c1 (configuration not stated)	inactive: -2.19%
COc1ccccc1C(=O)Nc1nnc(S(=O)(=O)N2CCCCCC2)s1	inactive: -6.7%
COc1ccc(-c2nc(CNS(=O)(=O)c3ccc(C)cc3)cs2)cc1	inactive: 1.99%
CCOc1ccc(CCNc2nc3c(-c4ccc(C)cc4)nnn3c3ccccc23)cc1OCC	inactive: 25.5%

SMILES	activity change, negative = cytotoxicity
Cc1ccc(-c2ccc(=O)n(CC(=O)Nc3ccc(F)c(Cl)c3)n2)cc1C	inactive: 4.68%
COc1ccc(-c2nc3ccccc3n2Cc2ccc(Cl)cc2)cc1	inactive: 17.6%
O=C(OCc1cc(=O)n2c3c(sc2n1)CCCC3)c1cccc(NC(=O)c2ccccc2F)c1	inactive: -25.4%
COc1cc(C)ccc1OCCSc1nnc(-c2ccc(C)cc2)o1	inactive: 2.68%
Cc1ccc(C(=O)c2oc3ccccc3c2NC(=O)Cc2coc3c(C)c(C)ccc23)cc1	inactive: -11.4%
O=C(NCc1ccccc1Cl)c1ccc(NC(=O)N2CCCCc3ccccc32)cc1	inactive: -29.6%
Cc1ccc(S(=O)(=O)c2c(Nc3cccc(Cl)c3)sc(C(=O)c3ccc4c(c3)OCO4)c2N)cc1	inactive: -8.64%
O=C(NCCS(=O)(=O)N1CCN(c2ccccc2)CC1)C1CC(=O)N(c2ccccc2)C1 (configuration not stated)	inactive: 0.784%
CC1CCCCN1CC(=O)N1CCCc2c1c(=O)oc1ccc(OCc3ccccc3)cc21 (configuration not stated)	inactive: 0.438%
COc1ccccc1C(=O)Nc1ccc(-c2nc3ccccc3s2)c(C)c1	inactive: 5.99%
Cc1cc(Br)ccc1NC(=O)C1(S(=O)(=O)c2ccc(Cl)cc2)CC1	inactive: -1.07%
Cc1cccc(NC(=O)CN(C)S(=O)(=O)c2ccc3c(c2)c(=O)n(C)c(=O)n3C)c1	inactive: 2.06%
CC1CCc2c(sc3nnn(Cc4cccc(C(=O)OC(C)C)c4)c(=O)c23)C1 (configuration not stated)	inactive: 19.8%
CC(=O)N1CCc2c(sc3c2c(=O)n(-c2ccc(F)cc2)c(=O)n3Cc2ccc(C#N)cc2)C1	inactive: 2.42%
CCCSc1oc(-c2ccco2)nc1S(=O)(=O)c1ccc(Br)cc1	inactive: 12.1%
Cn1c(-n2cccc2)c(-c2c(-c3ccc(F)cc3)[nH]c3c2c(=O)n(C)c(=O)n3C)c(=O)n(C)c1=O	inactive: -1.81%
COCCCNC(=O)Cn1nc(N2CCN(c3ccccc3)CC2)ccc1=O	inactive: 2.05%
COCCn1ccc2c(OCC(=O)Nc3c(C)cc(C)cc3C)cccc2c1=O	inactive: 3.73%
Cc1ccc(S(=O)(=O)n2nc(-c3ccc(Cl)cc3)nc2NCc2ccccc2)cc1	inactive: -13.1%
COc1ccc(-n2ccnc(NCc3cccs3)c2=O)cc1OC	inactive: 17.2%
CCOc1ccccc1CNC(=O)C1CCN(S(=O)(=O)c2c(C)noc2/C=C/c2ccccc2F)CC1	inactive: 8.75%

SMILES	activity change, negative = cytotoxicity
CCn1c(C(=O)NCc2ccccc2OC)cc2sccc21	inactive: -3.22%
CC1=C(c2ccc(C(C)C)cc2)S(=O)(=O)N=C1N1CCC(C(=O)NCc2ccccc2)CC1	inactive: -10.4%
COc1ccc(CC(=O)Nc2cc(-c3cn4cccnc4n3)ccc2C)cc1OC	inactive: -7.74%
COc1cccc2c1cc1c(=O)n(CC(=O)N3CCN(c4cccc(C(F)(F)F)c4)CC3)nc(C)n12	inactive: 2.9%
CCOc1ccccc1NC(=O)C(CC(C)C)NC(=O)C1CCC(C)CC1 (configuration not stated)	inactive: -1.21%
CCCCN(CC)C(=O)CSc1nc2n[nH]c(C)c2c(=N)n1-c1cccc(C)c1	inactive: -25.9%
O=C(COc1ccccc1Cl)Nc1nnc(S(=O)(=O)N2CCCC2)s1	inactive: 1.3%
Cc1ccc(NC(=O)CCc2c(C)nn(-c3ccc(N4CCOCC4)nn3)c2C)c(C)c1	inactive: 10.1%
COc1ccc(-n2nc3ccc(NC(=O)c4ccc(C#N)cc4F)cc3n2)cc1Cl	inactive: 1.27%
O=C(Nc1cccc(C(F)(F)F)c1)c1cc(-c2ccc(Cl)s2)nc2ccccc12	inactive: 5.5%
O=C(O)Cn1c(-c2cccs2)cc2cc(Cl)ccc21	inactive: 7.52%
O=C(Nc1cccs1)Nc1ccc(F)cc1F	inactive: -27.6%
COc1ccc(Cn2c(CO)cnc2SCC(=O)Nc2ccc3c(c2)OCCO3)cc1	inactive: -3.93%
COc1cccc(COC(=O)c2ccc(-c3nnn(Cc4cccc(OC)c4)n3)cc2)c1	inactive: 1.57%
CCOc1ccc(NC2SC(=O)N(Cc3ccccc3)C2=O)cc1 (configuration not stated)	inactive: -23.3%
COc1cccc2sc(NC(=O)CS(=O)(=O)c3ccc(C)cc3)nc12	inactive: 0.586%
O=C(O)c1ccc(Cn2cnc3cccnc32)cc1	inactive: -11.1%
CC1CCN(CC2CCN(C(=O)NCc3ccc(F)cc3)CC2)CC1	inactive: 1.28%
COc1ccc(S(=O)(=O)c2cnc3cc(OC)c(OC)cc3c2N2CCCC(C)C2)cc1 (configuration not stated)	inactive: -26.2%
CC1CN(C(=O)CCC(=O)NCc2cccc(Cl)c2)c2ccccc2S1 (configuration not stated)	inactive: -1.72%
